Reference: the RNAGym collection of RNA variant scans (doi:10.7554/elife.90254)
Read counts are not given, so values of variants with three or more changes are uncertain.

B1: LINE1-mini (parent)
chain: GGCAGAGCUCAACACAGCGUGGCAAAGUGGCUGUGGCUAGACUGCC

Variants of: B1
Assay: self-cleavage, relative activity (ratio to wild type); higher = more cleavage; in vitro, sequencing; the parent is a self-cleaving ribozyme
For GGCAGAGCUAAACCCAGCGUGGCAAAGUGCCUGUGGCUAGACUGCC, the self-cleavage was 0.06. In the case of GGCAGAGCUCAACACAGCGUGGCCAAGUUGCUGUGGCGAGACUGCC, the self-cleavage is reported as 0.02. Work on AGCAGAGCUCAACAGAGCGUGGCAAACUGGCUGUGGCUAGACUGCC yielded a self-cleavage of 0.06. In the case of GGCCGAGCUCAACACAGCGUGGCAGUGUGGCUGUGGCAAGACUGCC, the self-cleavage is reported as 0.07. GGUAGAGCUUAACACAGCUUGGCAAAGCGGCUAUGGCUAGAGUGCC showed a self-cleavage of 0.02. Variant GGCAGAUCUCAUCAUAGCGUGCCGAAGUGGCUGUGGCGAGAUUGCC has a self-cleavage of 0.02. GACAGAGCUCAAUACAGCGGGGCAAAGUGGCUGUGGCUAGACUGCC gave a self-cleavage of 0.3. GGCAGAGCUCAACACAGCGUGGCAAAGUGGCUGUAGCUAGACUGUG gave a self-cleavage of 0.2. Variant AGCAUAGCUCAACACAGCGUGGUAAAGUGGCUGUGGCUAGACUGCC has a self-cleavage of 0.06. With GGCAGAGCUCAACACAGCUCGGCAAAGUGGAUGUGGCUAGACUGCC the self-cleavage was 0.03. Variant GGCUGAGCUCAACACAGCGCGGCAGAGUAGCUGUGGCUAGAUUGCU has a self-cleavage of 0. GGCAGGGCUCGCCACAGCGUGGCAAAUUGGCUGUGGCUAGACUGCC showed a self-cleavage of 0.02. Work on GGCAGAGUUCAACACAGCGUGGCAAAGUGCCUGUGGCCAGACUGCC yielded a self-cleavage of 0.03. Work on GGCAGAGCUCAACACAGCUUGGCAAAGUGGCUGUGGCAAGACUGCA yielded a self-cleavage of 0.34. Variant GGAAGAGCUCAACAGAGCGUGGCAAACUGGCUGUGGCUAGACUGCC has a self-cleavage of 0.02. AGCACAGCUCUACACAGCUUGGCAUAGUGCAUGUGGCUAGUCUGCC showed a self-cleavage of 0.01. In the case of GGCAGAGCUCAACACAGGGUGGCAAAGUGGCUGUCGCUAGACUGGC, the self-cleavage is reported as 0.06. Work on GGCAGACCUCAAGACAGCGUGGCAAAGUGGCUGUGGCUAGAAGGCC yielded a self-cleavage of 0.02. GGCCGAGCUCAACACAUCGUGGCAAAGUGGCUGUGGCUAAACUGCC gave a self-cleavage of 0.08. GGUUGAGCUCAACACAGUGUGGAAAAGUGGCUGUGGCUAGACUGCC gave a self-cleavage of 0.06. For GGCAGAAUUCAAUACAUCGUGGCAAAGUGGCUGUGGCUAGACUGCC, the self-cleavage was 0.45. Variant GGCAGAGCUCAACACAUCGUGGCAGAUUGGCUGUGACUAGACUGCC has a self-cleavage of 0.07. CGCAGACCUCAACACAGCGUGGCAGAGUGGCUGUGGCUACGCUGCC gave a self-cleavage of 0.03. GGCAGAGCUCAACACAACCUGGCAAAGCGCCUGUGGCUAGACUGAC showed a self-cleavage of 0.01. Variant GGCAGAGCUAAACACAGCGUGGCAAAGUGGCUGUGGCGAGACUGAC has a self-cleavage of 0.03. With GGCAGAGCGCAACACAGCGUGGCCAUGUGGCUGUGGCUAGACUGCC the self-cleavage was 0.04. GCCAGAGCUCCACACAGAGUGGCAAAGUGUCUGUGCCUAGACUGCC showed a self-cleavage of 0.04. GGUAGAGCUCAACACAGUGUGGCAAAGUGCCUGUGGCUAGACUGUC gave a self-cleavage of 0.41. Variant AACAGACCUCAACACAUAGUGGCCAAGGGGCUGUGGCUAGACUGCC has a self-cleavage of 0.06. CGCAGAGUUCUACACAGCGUAGCAAAGUGGCUGUGGGUAGUCUGCC gave a self-cleavage of 0.01. GGCCCAGCUCAACACAGGGUGGCAAAGUGGCUGUGGCUAGACUGCC gave a self-cleavage of 0.03. Variant GGCAGAGCUAAACACAGCGUGUCAAAGUGGCCGUGGCUAGACUGCC has a self-cleavage of 0.02. GGCAGACCUCAAGACAGCGUGGCAAAGUGGCUGUGGCUAGGCAGCC showed a self-cleavage of 0.03. For CGCAGAGCUCUCCACAGCGUGGCAAAGUGGCUGUGGCUAGACUGCC, the self-cleavage was 0.01. With GGCAGGGAUCUACACAGCGUGACAAUGGGGCUGUGGCUAGACUGCC the self-cleavage was 0.01. Work on GACAGAGCUCAACACAGUGUGGCAAAGUAGCUGUGGCUAGACUGCC yielded a self-cleavage of 0.72. For GGCAGAGCUCAACAUAGCGUGGCAAAGUGGCUAGGGCUAGACUGCC, the self-cleavage was 0.31. GGCGGAGCUCAAGCCAGCGUGGCAAAGUGGCUGUGGCUAGACUGCC gave a self-cleavage of 0.01. With AGCAGAGCUCAACACAGUGUGGCAAACUGGCUGUGGCUAGACUGCC the self-cleavage was 1.28. GGAAGUGCUCAACACAGCGUGGCAAAGUGACUGUGGCUUGACAGCC showed a self-cleavage of 0.51. Work on GGCAGAGCUAAAAACUUCGUGUCAAAGAGGAUGUGGCUAGACUGCC yielded a self-cleavage of 0. For GGCAGAGCUCAACCCAGCGUGGCAAAGUGGCUGUAGCUAGACUUCC, the self-cleavage was 0.12. Variant GGCAGAGCUCAACACAGUGUGACAUAGUGGCUGAGGCCAGACUGCC has a self-cleavage of 0.04. In the case of AGCAGAGCUCAACACAGAGUGGCAAACUGGCUGUGCCUAGACAGCC, the self-cleavage is reported as 0.03. Variant GGCAGAGCUUAACACAGCGUGGAACAGUGGAAGUGGCUAAACUGCC has a self-cleavage of 0.02. In the case of AGCAGAGCUCAACACAGCGUGGCUAAGUGGAUGUGGCUAAACUGCC, the self-cleavage is reported as 0.04. With GGUAGAGCUCAACACAGCGUGGCAAAUUGGCGGUGGCUAGACUGCC the self-cleavage was 0.15. With GGCAGAGCUCAACACAGCGUGGCAAAGUGGCGGUGGCUAGACCGUC the self-cleavage was 0.08. With GACAGAGCUCAAUACUGCGUGGCAAAGUGGCUGUGGCUAGACUGCC the self-cleavage was 0.32. GGCAGAGCUCAACCCAGCGUCGCAAAGUGGAUGUGGGUAGACUGCC showed a self-cleavage of 0.01. Variant GGCAGAGCUCAACACAGCGUGGCAAAAUGGCUGUUGAUGGACUGCA has a self-cleavage of 0.06. With GGCCGAGCUCAACACAGCGUGGAAAAUUGGCUGUGGCUAGACUGCC the self-cleavage was 0.04. GGAAGAGCUCAACACAGCCUGGCGAAGUGGCUGUGUUUAGACUGCC showed a self-cleavage of 0.02. With GGGAGAGCUCAACACAGUGUGGGAAAGUGGCUGUGGCUAGACUGCA the self-cleavage was 0.17. Variant GGCAGAGCUCAACACCGCGUGGGAAAGUGGCUGUGUCUAGACUGCC has a self-cleavage of 0.02. In the case of GUCAGAGCUCAAAACAGCGUGGCAAGGUGGCUGUGGCUAGACUGCC, the self-cleavage is reported as 0.04.
